# In PubChem BioAssay AID1508642 (National Center for Advancing Translational Sciences (NCATS), 2021):
# The whole screen tested about 43,000 compounds, of which about 200 (0.47%) were called active. Inconclusive results (about 12%) are left out. The call rests on the fitted dose curve; in most records, active means well fitted cell-killing curve with a large enough effect; inconclusive means small, poorly fitted or top-dose-only effect, or effect the other way; inactive means flat fitted curve, though single readings scatter. This is one part of the list.
# Test: Cell viability qHTS assay in S16 Pmp22-F2sN cells; further: nearly all actives have a fitted effect of over 65% in size
# Conditions: S16 Pmp22-F2sN Schwann cells (luciferase reporters placed in the Pmp22 gene) viability, CellTiter-Glo, 24 h; series mostly up to 57.5 µM; activity change, negative = cytotoxicity: at the top concentration
# Method in brief: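 Rat S16 Schwann reporter line, 24 h treatment with library compounds delivered at 23 nL per well. Cell viability by CellTiter-Glo luminescence.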
# On the % scale 0 is the no-effect control and ±100 the full control effect.
row,SMILES,"activity change, negative = cytotoxicity"
1,CC1CCN(C(=O)c2c(NC(=O)c3ccccc3Cl)sc3c2CCC(C(C)(C)C)C3)CC1 (centres undefined),inactive: -1.94%
2,Cc1ccccc1NC(=O)Cn1c(=O)n(CCCC(=O)NCc2ccc3c(c2)OCO3)c(=O)c2ccccc21,inactive: 1.86%
3,CCOc1ccc(CC(=O)Nc2cccc(-c3nc4cccnc4s3)c2C)cc1,inactive: 0.875%
4,COc1ccc2[nH]cc(CCN=C(NC(=O)c3ccccc3F)Nc3nc(C)cc(C)n3)c2c1,inactive: 25.7%
5,O=c1cc(-c2ccccc2)c2ccc3c(c2o1)CN(Cc1cccc(Cl)c1)CO3,inactive: 1.26%
6,COc1cccc(NCc2cccn2-c2nnc(N3CCC(C)CC3)s2)c1,inactive: -11.1%
7,CCC(C)NC(=O)CN1C(=O)c2cccnc2Sc2ccccc21 (centres undefined),inactive: 2.8%
8,COc1ccc(Cl)cc1NC(=O)c1c(NCc2ccc(C)o2)sc2c1CCC(C)C2 (centres undefined),inactive: -15.1%
9,Cc1ccc(-c2cn3cccnc3n2)cc1NC(=O)C(C)(C)Oc1ccc(Cl)cc1,inactive: -12.1%
10,C=C(C)CSc1nc2sc3c(c2c(=O)n1Cc1ccccc1)CC(C)(CC)OC3 (centres undefined),inactive: 0.838%
11,Cc1c(C(=O)Nc2ccccc2Br)oc2ccc(S(=O)(=O)N3CCCCCC3)cc12,inactive: -22.2%
12,Cc1ccc2oc3c(c(=O)c2c1)C(c1ccc(O)cc1)N(CCCN(C)C)C3=O (centres undefined),inactive: 18.2%
13,Cc1ccc(-n2c(=O)c3cccnc3n2CC(=O)NCc2ccc(Cl)cc2)cc1,inactive: 4.96%
14,COC(=O)c1ccc([C@@H]2Nc3c(OC)ccc(C)c3[C@@H]3C=CC[C@@H]32)cc1,inactive: -5.44%
15,Nc1c(C(=O)Nc2ccc(F)cc2)sc2nc(-c3cccs3)cc(C(F)(F)F)c12,inactive: -0.97%
16,Cc1cc(F)ccc1NC(=O)C(c1ccccc1)N1Cc2ccccc2C1=O (centres undefined),inactive: -19.1%
17,COc1ccc(C(=O)Nc2cccc(C(=O)OCc3cc(=O)n4nc(C5CC5)sc4n3)c2)cc1,inactive: -28.4%
18,Cc1cccc(Nc2ncnc3onc(-c4ccc(Cl)cc4)c23)c1C,inactive: -2.25%
19,O=C(CCS(=O)(=O)c1cc2c(cc1Cl)NC(=O)CO2)NCc1ccc(Cl)cc1,inactive: 14%
20,CC1N=C2c3ccccc3N=C(SCC(=O)NCCc3ccc(Cl)cc3)N2C1=O (centres undefined),inactive: 3.03%
21,CCn1c2ccccc2c2cc(CN3CCN(Cc4ccc(Br)cc4)CC3)ccc21,inactive: -15.7%
22,COc1cccc(Cc2nc3ccccc3nc2SCC(=O)Nc2cccc(C)c2)c1,inactive: 1.32%
23,Cc1ccc(Cn2cc(S(=O)(=O)c3cccc(C)c3)c(=O)c3cc(F)c(N4CCOCC4)cc32)cc1,inactive: -9.1%
24,O=C(Nc1cc(-c2ccccc2)sc1C(=O)O)c1cccc(F)c1,inactive: -4.82%
25,COc1ccc(CNC(=O)c2sc3nc4n(c(=O)c3c2C)CCCC4)cc1,inactive: 3.01%

row,SMILES,"activity change, negative = cytotoxicity"
1,O=C(Cn1c(=O)n(Cc2nc(-c3ccccc3)no2)c(=O)c2cc3c(cc21)OCO3)Nc1ccccc1,inactive: -10.6%
2,CCC(C)n1c(=O)c2sccc2n2c(CCCC(=O)N3CCN(c4ccccc4)CC3)nnc12 (centres undefined),inactive: 9.93%
3,COC(=O)c1cc(Nc2nc3ccccc3nc2NS(=O)(=O)c2ccc(C)cc2)ccc1Cl,inactive: -8.73%
4,COc1ccc2c(c1)CCc1c(C(=O)Nc3cc(OC)c(Cl)cc3OC)noc1-2,inactive: 2.44%
5,O=C(Cc1ccccc1)Nc1sc2c(c1C(=O)Nc1ccccc1Cl)CCCCC2,inactive: 10.6%
6,CCOC(=O)C1CCCN(S(=O)(=O)c2cc(-c3cc(C)no3)ccc2OC)C1 (centres undefined),inactive: -10.4%
7,CC(C)CC(=O)Nc1ccc2nc(SCC(=O)N3CCc4ccccc43)sc2c1,inactive: 12.7%
8,Cc1ccc(CN(C(=O)c2ccc(C(C)(C)C)cc2)c2ccccn2)o1,inactive: 11.4%
9,COc1ccccc1NC(=O)CSc1ncc2c(n1)-c1ccccc1N(Cc1ccccc1C)S2(=O)=O,inactive: -4.82%
10,CCn1ccc2cc(S(=O)(=O)N3CCCN(C(=O)Nc4ccccc4F)CC3)ccc21,inactive: 15.1%
11,COc1cccc(Cn2c(SCC(=O)N3CCN(c4ccc(F)cc4)CC3)nc3ccccc32)c1,inactive: 8.09%
12,O=C(CSc1nnc(-c2ccc3c(c2)OCO3)o1)Oc1ccccc1,inactive: 16.3%
13,O=C(COC(=O)c1cc(-c2cccs2)nc2ccccc12)c1ccc(F)cc1,inactive: 0.22%
14,CCc1cccc2sc(N3CCN(C(=O)C4CC4)CC3)nc12,inactive: 2.18%
15,Cc1ccc2cccc(NC(=O)c3cccc4ccccc34)c2n1,inactive: -12.8%
16,CCCCNC(=O)CSc1nc2cc3c(cc2c(=O)n1CCCC(=O)NCc1ccc2c(c1)OCO2)OCO3,inactive: -13.4%
17,CC(C)(C)OC(=O)N1CCC(c2c(C(=O)N3CCc4ccccc4C3)cnn2-c2ccc(Cl)cc2)CC1,inactive: -24.8%
18,CCOc1ccccc1C(=O)N(Cc1ccc(N(C)C)cc1)CC1CCCO1 (centres undefined),inactive: 12.6%
19,CCS(=O)(=O)Nc1cc(-c2cn3ccc(C)cc3n2)ccc1C,inactive: -1.45%
20,Cc1ccc(-c2noc(CN(C3CCCCC3)S(=O)(=O)c3ccc(Cl)cc3)n2)cc1,inactive: 8.71%
21,Cc1ccc(CNc2ncnc3c2c(-c2ccccc2)cn3-c2cccc(Cl)c2)cc1,inactive: 22.1%
22,COc1ccc(-c2nc3n(n2)C(c2ccccc2F)C(C(=O)Nc2cccnc2)=C(C)N3)cc1OC (centres undefined),inactive: -0.383%
23,Cc1cccc(-n2c(=O)c3c(c4cc(C)ccc4n3C)n(CC(=O)Nc3ccccc3C(F)(F)F)c2=O)c1,inactive: 10.1%
24,COCCCNC(=O)c1sc2ncccc2c1-n1cccc1,inactive: -2.6%
